# Reference: PMC4655192 (Neuropharmacology, 2015)
# Like-named read-outs stand apart in the source and are kept apart here.
# What was measured:
# [1] = test system: MOR-KO striatal membranes
# [2] = test system: KOR-KO striatal membranes
SMILES,IC50 (WT striatal membranes; vs 1 μM DynA(1-17)) [nM],IC50 (WT striatal membranes; vs 1 μM DynB(1-9)) [nM],IC50 ([1]; vs 1 μM DynA(1-17)) [nM],IC50 ([1]; vs 1 μM DynB(1-9)) [nM],IC50 ([2]; vs 1 μM DynA(1-17)) [nM],IC50 ([2]; vs 1 μM DynB(1-9)) [nM]
"NC(N)=Nc1ccc2[nH]c3c(c2c1)C[C@@]1(O)[C@H]2Cc4ccc(O)c5c4[C@@]1(CCN2CC1CC1)[C@H]3O5 [5′-GNTI, 5′-guanidinonaltrindole]",17.3 ± 2.1,11.4 ± 2,11.5 ± 0.8,4.7 ± 0.7,11.7 ± 4.5,10.9 ± 1.5
"Oc1ccc2c3c1O[C@H]1c4[nH]c5c(c4C[C@@]4(O)[C@@H](C2)N(CC2CC2)CC[C@]314)C[C@@]1(O)[C@H]2Cc3ccc(O)c4c3[C@@]1(CCN2CC1CC1)[C@H]5O4 [NorBNI, Norbinaltorphimine]",46 ± 5.2,28.1 ± 2.9,19 ± 3,9.1 ± 2.3,66.7 ± 20.4,43.1 ± 10.1
Oc1ccc2c3c1O[C@H]1c4[nH]c5ccccc5c4C[C@@]4(O)[C@@H](C2)N(CC2CC2)CC[C@]314 [naltrindole],20 ± 7,16 ± 9,–,–,–,–
